# Assay results as given in the RNAGym collection of RNA variant scans (doi:10.7554/elife.90254).
# Read counts are not given, so values of variants with three or more changes are uncertain.
# B1: LINE1-mini (parent)
# chain: GGCAGAGCUCAACACAGCGUGGCAAAGUGGCUGUGGCUAGACUGCC
# Variants of: B1
# Test: self-cleavage, relative activity (ratio to wild type); higher = more cleavage; in vitro, sequencing; the parent is a self-cleaving ribozyme
row,Variant,self-cleavage
1,U9A G44U C46A,0.49
2,A4G C13G G44C,0.01
3,G2C G5A A14U A25G U38G,0.09
4,A12C A39C C42G,0.03
5,U9C A25C G29U C31A G33A,0
6,C13U C15G U34C,0.01
7,A12U A16G A25G G44C,0.05
8,G35U G40C C45U,0.02
9,G1U C23U U34G C37U A39G,0.02
10,C18A A26C C45G,0.18
11,G7C C10U C15A,0.06
12,G2C G29C A41G C46U,0.12
13,G7C C13A A14G U34A G36U G40U,0.04
14,G17C A26U G44A,0.17
15,A11G G22A C46G,0.02
16,C3A A4G G19U U20G C46U,0.63
17,G40A A41G G44U,0.03
18,C3A G7U G30C,0.35
19,A11G G27C U28G U34G,0.01
20,G21A G29U U34G,0.49
21,A11U C15G G36A G40U,0.04

row,Variant,self-cleavage
1,G1U G17C G22C A41U,0.02
2,C15U A16G G27A,0.04
3,U32A G36C U38C G44U,0.03
4,G2U A11U C23U U28G C37U,0.01
5,C10U C18U G36A,0
6,G1U G7A C10U,0.04
7,G22A A26U G44A C45U C46A,0.02
8,U9A C23A G30A G33U A39C,0
9,C10G G30U G33U,0.04
10,C10G G22C C42A,0.02
11,G1U G5C G17C,0.01
12,A11U G19A G29U U32G,0.01
13,C15A U32C A39U G40U A41C,0.08
14,G21A U32G U34A C42U,0.03
15,C37A G44U C46G,0.45
16,C15A A16C C23A G33U,0.13
17,G1A U28G U38A,0.07
18,C3U U34C G35A,0.17
19,G1A A4U C18U C23G A26U U32C,0.01
20,U9A C13U G22A,0.04
21,A14G C18A G40C C46G,0.02

row,Variant,self-cleavage
1,G2U G7U U20A G21A G27A,0.06
2,G17C G33U U38G,0.03
3,C31A G33A U34A G35A A41C C42A U43A C46G,0.03
4,G29C C31U C45A,0.13
5,A14U U20A G44U,0.02
6,G36A A39U C46U,0.14
7,G5U A11C A14U A16C A26C G27A C31U G35U,0.01
8,G29U C42A C45G,0.12
9,C3G A4U G5A C45A,0.54
10,U20G G22A G35U A39C C45G,0.06
11,A6G G40C C46A,0.04
12,C13G U34G C45A C46A,0.02
13,A11C G35U G40U C42U,0.01
14,G1C U32A G40U,0.03
15,A4C G5U U32G G44A,0.01
16,C10U G36U C46U,0.04
17,C10A G33U A41U,0.06
18,U20A G35C C37A,0.04
19,C37G G40A C46A,0
20,C10U C23U C37A C45U,0.09
21,G2A C8U C18G G35C C45U,0.14

row,Variant,self-cleavage
1,C13U A16U G22U,0.08
2,U32G C37A C42U C46A,0.05
3,C18U A41G C45U,0.01
4,A12G U20A C23G G35U C37U A39G,0
5,U9A G19C U28C,0.04
6,C10U C13G G30U C31G,0.03
7,G5A G21U C45U,0.6
8,C8U A14G C15U G22U G33U,0.29
9,U20G G33C G36C C46A,0.03
10,C3U G22U C37G,0.04
11,C8A C18G G22A G36C G40U,0.04
12,C3U G7C C23A C45A,0.23
13,C3U G19U U20A C31U U32A,0.05
14,U9A C23U A25G,0.08
15,C10A G19A A24C G35A G36A,0.01
16,A4C A26U G27C C31A G40A,0.16
17,C18G A26C U38A A41G,0.04
18,G30U G36U G40U,0.1
19,A11G A14C C23A,0.01
20,G19U G22A C31G,0.03
